Results: the RNAGym collection of RNA variant scans (doi:10.7554/elife.90254)
Read counts are not given, so values of variants with three or more changes are uncertain.

B1: OR4K15 (parent)
chain: GUUAACGGUCAUAGGCCAUGGAAACUAGGAGCACCAUUUCGCUGCCAGUGAAGAAAUGAACAAAGAAAAUCUGGGCCAGGCAGGCAUCAAAAGAAAUAGUCUUGCGCUCAACCAGAAAGUCUGUAAUCAUUUUAAGGGUA

Variants of: B1
Experiment: self-cleavage, relative activity (ratio to wild type); higher = more cleavage; in vitro, sequencing; the parent is a self-cleaving ribozyme

Variant | self-cleavage
G29A A54G U130C | 1.06
G29A A33U U72C A86C | 0.11
U26C C81U C101A U130C | 0.02
A27G A33G A66G U131C | 0.31
A24G U49C A56G U97C A125G | 0.33
A27G A116G G123U | 1.5
A24U A91G U122C | 0.28
U26G A56G U108A | 0.06
A24G U37C A78C | 0.41
A24G U37C A55G | 1.2
U26C U72G A114G | 0.1
A27G A30G G73A | 0.3
U26A A126G U131G | 1.75
A27G A59G C85U A94G | 0.67
A27G A30G U38C U127A | 1.19
A27U A62C U72C A82G | 0.19
A27C U39A U130C | 0.82
U26C A56G U70C | 0.83
A24G U38C A47U A114G | 0.79
A24G U38C A68G U131C | 1.95
U26C A52G A59G U130C | 0.35
A24G U43C U70C | 1.51
A27U U49C A82U | 0.17
U26C A36U A89C | 0.78

Variant | self-cleavage
A27G U49A U100A U103C A116G | 0.05
A27G A30U A92G | 0
A24G G41U A118G | 1.19
A24G G48A A82G | 0.42
A27G A66G A126G | 1.26
A24G G29A A98G | 0.44
A27G A63G A111G U124C U127C | 0
A27G A33G U37C A82G | 0.14
A27G A55G A68G G119A | 1.95
U26G C76A U122C | 0.12
U26A A63C A68G U122A | 1.17
U26C A66G U103A A118G | 0.35
A27C A55G A69G U97C A134G | 0.73
C25G A95G U120A | 1.4
A27U G53A U57C U103A G119A | 0.39
U26A U70C A117G | 0.47
G28A U49C A55G A67G A96G | 1.46
A24G U87C A91G | 0.35
A27G G41A U72C U87C A114G | 1.86
A24U A111G U120C | 0.01
U26A U49C A56G | 1.12
A24G U37G G136U | 1.07
U26C A66G A67G U124C | 0.36
A27C A78G A95G | 0.38

Variant | self-cleavage
G29A A90G U120A | 0.63
A27G G28U A89G A92G U97A | 1.25
G28A A64G A78G A118G | 0.16
U26C U57C A64G C85U | 0.57
U26C U37C G79A | 0.1
A27G A111G A114U | 0
A24G G44A A66G A134U | 1.53
A24G U49C A59G A66G A69G A114C U124A | 0
G28A A36G U43C U57C | 1.15
C25U A68G U100C | 1.61
A24G C81U A95G | 1.2
A24G G58U A86G A117U U132C | 0.68
A27G U70C A95G A111U U139C A140G | 0.06
A24G U57C A68G U72C | 0.38
A24G U38C U102C A118G | 1.34
A24U U26C A55G | 1.58
A24G C88U A96G | 1.06
A27U G28U A55G A86G U122A | 1.63
A24U U43C A90G A92G | 1.98
A24U C35A A59G | 1.03
U26A U38C C77U | 1.42
A24U A54G A92G | 1.06
U26C A63G A118G | 0.92
A27G U122C A135G | 0.92

Variant | self-cleavage
A24G U49A A94U U122C | 1.87
A24G U43C A59G U87A | 0.9
A24U U49C A56C | 0.95
A27G A64G A82G C88U A110G | 0.08
A27G A60G A68U U102C | 1.37
U26A A33G A111G | 0.02
A24G U70C U122C | 0.19
U26C U49A A90G U102C | 2.32
U26C A64G U102C | 1.07
A27G U102A U131C | 0.77
A27G A82U A86G | 0.23
A27G A36C U37C A54G A67U A68G A69G A118G U120A | 0.16
A24G U49C A94U | 2.24
A24G G41A U87C | 1.15
A27G A68G U102A A118G | 0.22
A24U A27G A82G A91G | 0.38
U26C A55G A89U U120C | 0.57
A27G A64C A95G | 1.71
A24U A111G U122C | 0.01
A24U U37C A54G A68G A90G A110G U127C | 0.02
C25G U127A U131C | 2.31
U26C A66G A111G U131C | 0.01
G28U U57C U127A | 2.47
A27C U87C U102C | 2.53

Variant | self-cleavage
A27G A51G A110G U130C | 0.16
A27U U57C A114U U130A | 0.02
U26A G74A A114U | 0.06
A24U A64G A117U A134G A135G | 0.68
A27G A30U U122G | 2.29
A24G G31C A33G | 1.15
A24U A62G A110G | 0.21
C25A U108A A118G | 0
A27G A82G A96G U108A | 0
A27G U37C A54G U57C U87C | 0.36
A27G A92G A126G | 1.16
U26C A67C A126G | 1.29
A24U A52G A82U | 0.27
A24U A89G U97A A118G | 1.02
A24U A27G A55G | 0.62
A27U U102C A126G | 1.78
A27G U38A C46A | 0.58
A27G A51U U130C | 0.5
A24G U26A A51G A86G | 1.39
U26G U43C U103C | 0.68
A24G G29U A86G A90U U131C | 1.35
A27G A59G U87C A111U A116G | 0
G28A U43A U72A | 0.14
A24G U72C U127C U130C U131A | 0.14

Variant | self-cleavage
U26A A86U A98G | 0.21
A24G U39A A69G A118C U127C | 0.32
A24U A64G A94G A98G | 0.71
A27U U37C A63U | 0.77
A27G A51C A78G | 0.49
A24U U37C G53A A67G A94G | 0.89
G28U A47G A55G A66G A94G A140G | 1.12
A27G U43A U72C | 0.18
U26C A66G A67G | 1.06
A27G U97A U122C | 2.09
A27G A59G A90G A118G U131C U132C | 0.13
A27G C32A U38C G79A | 0
U26C A92C A94U | 2.92
A24G U43C A69G A116G A125G U131C G136A | 0.02
A27G A82U A95U | 0.17
A27C U43C A89G | 1.68
A24G U70C U100C | 1.96
A27U A78G A118G | 0.33
A27G G53A A64G U70C A92U U133C | 0.93
G28A A55G A89G | 0.81
U26C U38C A90G U122C U132C | 0.64
A27U C88U U120C | 0.9
C25U U43G A140G | 2.42
A27U A51U A86G U120C | 0.39

Variant | self-cleavage
A27G A67G A116G | 0.45
A24U U49C A52G | 1.15
A24U A33G A92G U122C | 0.48
A24G U39C U72C A96G A114C U133C | 0.02
A24U A60G A67G U72A A98U U108C | 0
U26C U72A U120C | 0.11
G28U U57C U72A U87C U127C | 0.04
A24U U38C A91G U139C | 1.3
A27G U57C U131C | 0.45
U26C U39C U120C U139C | 0.73
A27U A68G U100C | 2.5
U26C A54C U87A U132A | 1.44
A24G U38C A63C | 0.66
A24U A62G A68G | 0.88
U26C A59G U100C | 2.58
U26C U43A A54G A59G U139G A140U | 0.35
G28U A56G A59G U70C | 0.72
C25G U70C U120C | 0.3
A27U A82C A91U A126G | 0.11
A27G A60G A67G A89C A95G U133C | 2.34
U26C A60G A114U | 0.03
A27G U57C U70C A96G A129G U132C | 0.63
A24G U26C A86G A118G | 0.72
